The results in this text go back to ChEMBL document CHEMBL4888484, “Replenishing the malaria drug discovery pipeline: Screening and hit evaluation of the MMV Hit Generation Library 1 (HGL1) against asexual blood stage Plasmodium falciparum ,using a nano luciferase reporter read-out” (2022).

The whole screen tested about 150,000 compounds, of which about 540 (0.36%) showed an effect of 50% or more. The list shows a part of the results.

For the assay, the system named is Plasmodium falciparum. Kind of assay: Primary screen in NF54 nanoGlo assay, in single point, at 2uM, 72h; a lower Z score goes with more inhibition. The assay is classed as functional, Erythrocyte. Particulars: timepoint 72 hour.
With `Cc1nc(-c2ccc(NC(=O)CCc3cccs3)cc2)co1`, the “% Inhibition” value is reported as -7% and the Z score was 0.99.
On the same counts, the results for `Cc1nc([C@@H](C#N)NC(=O)OC(C)(C)C)cs1` are 34% and -3.9.
On the same counts, the results for `Cc1ccc(NC(=O)c2ccccc2N2C(=O)[C@@H]3Cc4c([nH]c5ccccc45)C(c4ccccc4)N3C2=O)cc1C` (stereo partly specified) are 5% and -0.61.
For `CCCN(Cc1c(-c2ccccc2)noc1N1CCCCC1)C(=O)c1ccccc1F` the same measures were -14% and 1.38.
Consider `COc1ccc(OCc2n[nH]c(-c3ccc(C(C)C)[nH]c3=O)n2)cc1`, for which the “% Inhibition” value is recorded as -2% and the Z score is listed as 0.19.
On the same counts, the results for `C[C@H]1CN(C(=O)NCc2nc(C3CC3)no2)CCN1c1ccccc1` are 0% and -0.08.
On to `CCN(CCCOc1ccccc1)CC(=O)Nc1c(Cl)cccc1Cl`, for which the “% Inhibition” value is on record as -10% and the Z score stood at 1.31.
On the same counts, the results for `CC[C@@H](c1cccnc1)N(C)C(=O)c1cnc(N2CCN(C)CC2)nc1C` are 1% and -0.25.
For `Cc1cc(N)cc(F)c1Br` the same measures were 2% and -0.35.
For the compound `Cc1ccc(S(=O)(=O)Oc2ccc(C)cc2-c2nc3ccccc3o2)cc1`, the “% Inhibition” value is given as -2% and the Z score was 0.26.
With `COC(C)c1cccc(NC(=O)NC(C)CC(C)(C)OC)c1` (stereo unspecified), the “% Inhibition” value is recorded as 1% and the Z score is -0.11.
Consider `CC(NCC(C1CC1)N(C)C)C(C)(C)C` (stereo unspecified), for which the “% Inhibition” value was found to be 3% and the Z score is recorded as -0.32.
Turning to `COc1cccc(CNC(=O)Cn2cccc2-c2nc(-c3ccc4c(c3)OCO4)no2)c1`, the “% Inhibition” value is on record as -10% and the Z score was determined as 1.27.
For `CCn1cncc(NC(=O)[C@@H]2CCO[C@H]2C2CC2)c1=O` the same measures were 1% and -0.13.
Consider `CCC(NC(C)C(=O)N(C)C)c1c(C)noc1C` (stereo unspecified), for which the “% Inhibition” value is reported as -11% and the Z score is 0.99.
For `O[C@H]1CC[C@H](CN2CCN(c3ccc(F)cc3)CC2)CC1`, the “% Inhibition” value was -25% and the Z score was found to be 2.23.
On the same counts, the results for `Cc1cccc2c1O[C@H](C(=O)N1CCOc3c1c(C)nn3C)C2` are 11% and -1.57.
`Cc1cc(NC(=O)C2C3CCC(C3)C2NC(=O)OC(C)(C)C)n(C)n1` (stereo unspecified): the “% Inhibition” value is reported as -3% and the Z score was determined as 0.35.
For `C(#Cc1ccccc1)C[N+]1(CC#Cc2ccccc2)CCOCC1` the same measures were 3% and -0.23.
On the same counts, the results for `O=C(Nc1ccc(Br)cc1)C1CCN(c2cc(-c3ccc(F)cc3)ncn2)CC1` are 6% and -0.74.
For `CC(C)[C@H](NC(=O)c1cnn2c1CCC2)c1cnn(C)c1` the same measures were -7% and 1.4.
With `CCc1ccc(S(=O)(=O)Nc2ccc3c(c2)C(=O)N(CC)c2ccccc2O3)cc1`, the “% Inhibition” value is on record as -17% and the Z score is 1.95.
On the same counts, the results for `Cc1cc(C)cc(NC(=O)NC2(CN(C)C)CCC2)c1` are 5% and -0.49.
For `Cc1nc(NCC2(O)CCOCC2)nc(C)c1CC(C)C` the same measures were -9% and 0.8.
On the same counts, the results for `c1ccc(CC2(NCc3ncc[nH]3)CCCC2)cc1` are -4% and 0.52.
As for `CCNC(=O)C(C)(C)NC(=O)[C@H]1C[C@@H]1c1ccccc1`, the “% Inhibition” value is given as -8% and the Z score is 0.98.
On the same counts, the results for `Cc1cc(C)cc(NC(=O)N2C[C@H](c3nc(-c4cccnc4)no3)[C@@H](C)C2)c1` are -12% and 1.43.
On the same counts, the results for `CC[C@H]1CN(CN2C(=O)NC3(CCCCC3)C2=O)CCO1` are -3% and 0.47.
Regarding `C[C@@H](Cn1cncn1)N1CCC2(CC1)CN(CCc1ccccc1)C(=O)O2`, the “% Inhibition” value is -1% and the Z score was 0.09.
On the same counts, the results for `CCc1nc(N2CCCC2=O)sc1C(=O)NCc1ccccc1C` are -10% and 0.89.
As to `CCCc1sc(N(C(=O)c2ccc(Cl)cc2Cl)c2ccc(OC)cc2)nc1-c1ccccc1`, the “% Inhibition” value is recorded as -9% and the Z score amounted to 1.46.
On the same counts, the results for `Cn1c([C@H]2CCCN(S(C)(=O)=O)C2)nn(CC(=O)NCc2ccc3c(c2)OCO3)c1=O` are -9% and 1.33.
Turning to `C[C@@H](c1ccccc1)n1nccc1NC(=O)NCCN1CCCCC1=O`, the “% Inhibition” value is -1% and the Z score is 0.14.
Consider `Cc1ccccc1N1C[C@@H](C(=O)Nc2ccc(S(=O)(=O)N3CCOCC3)cc2)CC1=O`, for which the “% Inhibition” value came to 15% and the Z score is given as -1.84.
On the same counts, the results for `Fc1cccc(Cn2ncc3[nH]c(-c4cccc5nonc45)nc32)c1` are 6% and -0.98.
On the same counts, the results for `Cc1cccc(NC(=O)CN2CCN(C(=O)c3cc4c(s3)CCC4)CC2)c1C` are -3% and 0.44.
On the same counts, the results for `COc1ccc(NC(=O)C2CC3CCC2C3)cn1` (stereo unspecified) are -4% and 0.62.
As to `O=C(NCc1nc(-c2cc[nH]c(=O)c2)no1)c1cccnc1`, the “% Inhibition” value was -18% and the Z score came to 3.02.
On the same counts, the results for `CCCc1nn(-c2cccc(F)c2)c(N2CCN(CC)CC2)c1CN(Cc1ccccc1F)C(C)C` are -5% and 0.45.
For `CN(CCCOCc1ccccc1)CC1(C)COC1` the same measures were -13% and 2.18.
For `Cc1ccc(N2CCN(c3nccn4nc(-c5ccccc5C)cc34)CC2)cc1` the same measures were -9% and 1.16.
`N#Cc1nccnc1N1CC(Cn2nc(C3CC3)ccc2=O)C1`: the “% Inhibition” value is -19% and the Z score came to 2.72.
On to `COC(=O)c1cccc(C#Cc2cccc(NC(=O)Cn3ccc(=O)[nH]c3=O)c2)c1`, for which the “% Inhibition” value is reported as 7% and the Z score is recorded as -0.98.
Regarding `C=C1C(C(=O)N2CCN(c3ccccc3)CC2)[C@H]1C(=O)N1CCN(c2ccccc2)CC1` (stereo partly specified), the “% Inhibition” value is 7% and the Z score is listed as -0.63.
On the same counts, the results for `C[C@H](Oc1ccccc1)C(=O)Nc1nnc(CCCc2ccccc2)s1` are -8% and 1.54.
For `N[C@H]1C[C@@H](c2cc(N3CCN(C4CCCCC4)CC3)nc(N3CCCC3)n2)C1` the same measures were 56% and -8.12.
For `CCOc1cc([C@H]2Nc3ccccc3C(=O)N2c2ccc(C)cc2)ccc1OCc1ccc(F)cc1` the same measures were -5% and 0.59.
As for `C[C@@H]1NC(=O)N(C2CCN(Cc3ccccc3)CC2)C1=O`, the “% Inhibition” value is recorded as -3% and the Z score amounted to 0.44.
`CCNC(=O)c1cccc(C)c1OCCc1scnc1C`: the “% Inhibition” value was -8% and the Z score worked out at 0.89.
On the same counts, the results for `Cc1nc(C)c(CCNC(=O)NC2CC3CC2C2CCCC32)s1` (stereo unspecified) are -19% and 2.
For `Cc1cc(C)n(Cc2nnc(N3CCC(C(C)(C)C)C3)n2CC2CCCO2)n1` (stereo unspecified) the same measures were -5% and 0.82.
For `O=C(c1cnc2ccccc2n1)N1CC(Nc2ccncn2)C1` the same measures were -20% and 2.34.
`COc1ncccc1-c1nc(CC2CCN(C)CC2)nn1CC(F)(F)F`: the “% Inhibition” value is reported as 8% and the Z score is recorded as -1.27.
